From article PMC4336329 (PLoS ONE, 2015)
The campaign covered roughly 310,000 compounds. About 14,000 (4.5%) showed an effect of 50% or more. Effects have a minus sign here. The list shows a part of the results.

molecular target: human ether-à-go-go-related gene (hERG) potassium channel (human, UniProt Q12809); assay: primary screen, population patch clamp on CHO cells stably expressing hERG
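Further: peak tail current of the secondary pulse compared with the same well before compound.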

Sequence of human ether-à-go-go-related gene (hERG) potassium channel (Q12809 whole entry, looked up): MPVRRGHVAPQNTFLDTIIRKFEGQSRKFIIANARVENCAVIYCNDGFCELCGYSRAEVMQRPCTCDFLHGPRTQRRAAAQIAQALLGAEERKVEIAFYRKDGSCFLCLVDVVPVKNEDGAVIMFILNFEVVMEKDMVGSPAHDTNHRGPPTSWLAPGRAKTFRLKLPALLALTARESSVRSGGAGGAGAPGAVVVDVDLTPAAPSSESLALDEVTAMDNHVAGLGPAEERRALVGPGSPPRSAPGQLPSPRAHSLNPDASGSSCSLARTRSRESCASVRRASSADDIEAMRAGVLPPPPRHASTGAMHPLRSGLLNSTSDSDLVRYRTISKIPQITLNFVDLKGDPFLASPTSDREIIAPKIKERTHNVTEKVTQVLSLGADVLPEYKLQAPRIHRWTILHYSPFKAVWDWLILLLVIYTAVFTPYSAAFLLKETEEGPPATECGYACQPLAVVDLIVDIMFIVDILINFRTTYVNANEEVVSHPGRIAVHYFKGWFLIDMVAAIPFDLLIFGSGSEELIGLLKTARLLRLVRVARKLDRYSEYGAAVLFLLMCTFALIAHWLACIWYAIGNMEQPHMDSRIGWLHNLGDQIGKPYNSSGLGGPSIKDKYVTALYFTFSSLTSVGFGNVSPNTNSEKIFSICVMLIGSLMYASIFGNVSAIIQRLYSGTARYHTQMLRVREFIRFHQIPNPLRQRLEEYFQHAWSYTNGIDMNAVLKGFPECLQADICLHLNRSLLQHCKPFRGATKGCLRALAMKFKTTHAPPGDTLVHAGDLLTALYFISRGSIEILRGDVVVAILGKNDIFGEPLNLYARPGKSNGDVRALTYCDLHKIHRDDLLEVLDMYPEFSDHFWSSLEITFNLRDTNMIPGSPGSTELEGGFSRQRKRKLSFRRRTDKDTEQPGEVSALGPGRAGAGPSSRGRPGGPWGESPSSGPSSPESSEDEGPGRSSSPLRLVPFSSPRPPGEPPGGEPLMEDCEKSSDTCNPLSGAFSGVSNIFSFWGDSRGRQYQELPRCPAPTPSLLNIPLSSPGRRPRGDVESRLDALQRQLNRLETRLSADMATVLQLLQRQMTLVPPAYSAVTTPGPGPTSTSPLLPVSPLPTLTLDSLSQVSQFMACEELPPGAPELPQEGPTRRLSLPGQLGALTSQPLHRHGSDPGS

Row | SMILES | hERG current change (%, negative = inhibition) at 10uM [%]
1 | O=C(CSc1nc2ccccc2c(=O)n1NC(=O)c1ccccc1)c1ccccc1 | -1.72
2 | CCc1ccccc1NC(=O)C1CCCN(S(=O)(=O)c2ccc3c(c2)CC(C)N3C(C)=O)C1 (stereo not shown) | -9.94
3 | CS(=O)(=O)N(CCc1ccccc1)CC(N)=O | 1.17
4 | COC(=O)c1c(NS(=O)(=O)c2ccccc2)csc1C | 13.3
5 | COc1ccc(-c2nc(SC)n(C(=O)c3ccco3)n2)cc1 | 13.7
6 | Br.COc1ccc(-c2csc(NNC3=NCCCCC3)n2)cc1 | -0.127
7 | O=C(CN1C(=O)C2C3C=CC(C3)C2C1=O)Nc1ccc2nccnc2c1 (stereo not shown) | 13.7
8 | CCC(C)NC(=O)CN1C(=O)c2cccc3cccc1c23 (stereo not shown) | 3.14
9 | O=C(O)CC/C(=N\NC(=O)c1ccncc1)c1ccccc1 | 21.9
10 | CCn1c(CNC(=O)c2ccccc2Cl)cc2ccccc21 | 17
11 | COc1cc(OC)cc(C(=O)NCCN2CCOCC2)c1.O=C(O)C(=O)O | 8.94
12 | CCOC(=O)CNC(=O)CSc1ccc2nnc(-c3ccc(F)cc3)n2n1 | -5.55
13 | Cc1c(C(=O)O)sc(=S)n1-c1ccc(Cl)cc1 | -9.29
14 | COc1cc2[nH]c(C(=O)NCc3ccccc3)cc2c(OC)c1OC.Cl | 13.1
15 | Cn1c(=O)[nH]c(=O)c2c1nc1n2CCCN1CCc1ccccc1 | -10.4
16 | Cc1ccc(CN(CC(=O)NCc2ccc3c(c2)OCO3)C(=O)c2csnn2)cc1 | -50.5
17 | CN(C)c1nc(OCCNC(=O)COc2ccc(Cl)cc2Cl)nc(N2CCCCC2)n1 | 8.22
18 | FC(F)(F)c1ccc(CNCCc2ccc3c(c2)OCO3)cc1.O=C(O)C(=O)O | -60.3
19 | Cc1ccccc1C(=O)c1cccn1CC(=O)O | 14.1
20 | C=CCn1c(SCC(=O)Nc2cc(NC(C)=O)ccc2OC)nnc1-c1cccnc1 | 2.09

Row | SMILES | hERG current change (%, negative = inhibition) at 10uM [%]
21 | Cc1ccc(NC(=S)Nn2cnnc2)c(C)c1 | 12
22 | O=C(N/N=C/c1ccc(Br)cc1)c1cc[n+]([O-])cc1 | -21.2
23 | O=C(COc1ccc(Br)cc1)Nc1ccc(NC(=O)c2ccccc2)cc1 | -1.94
24 | NC(=O)c1ccccc1NS(=O)(=O)Cc1ccc(Cl)cc1 | -12.2
25 | O=C(NCC(c1cccs1)N1CCOCC1)c1cc(-c2ccc(F)cc2)nc2ccccc12 (stereo not shown) | -55.9
26 | CCC(CC)c1nnc(NC(=O)CC(C)c2ccccc2)s1 (stereo not shown) | 12.3
27 | COc1ccc(NC(=O)N2CCCCCC2)cc1 | 13
28 | O=C(Cn1cnc([N+](=O)[O-])n1)N/N=C/c1cccc2ccccc12 | 2.05
29 | O=C(Nc1ccc(C(=O)N2CCCCC2)cc1)c1ccc(Br)cc1 | 3.55
30 | COc1ccccc1N(CC(=O)NCCSCc1cccc(C)c1)S(=O)(=O)c1ccccc1 | -7.39
31 | O=C(COC(=O)COc1ccc(Br)cc1)NCCC1=CCCCC1 | -14
32 | COc1ccccc1CCNC(=O)NC1CCCCC1 | -12.1
33 | COC(=O)[C@H](C)NC(=O)NCCC1=CCCCC1 | 7.48
34 | CN1C(=O)NC(=O)/C(=C\C=C\c2ccccc2[N+](=O)[O-])C1=O | 10.9
35 | O=C(O)C1CCCN1S(=O)(=O)c1cccc2nsnc12 (stereo not shown) | 23.9
36 | Cc1nn(-c2ccc(N3CCCCC3)nn2)c(C)c1CCC(=O)Nc1ccc(F)cc1 | -14.3
37 | N#Cc1c(Nc2ccccc2Cl)s[nH]c1=O | 1.91
38 | CC(C)CCNC(=O)CCc1nnc2ccc(N3CCC(C)CC3)nn12 | -24.8
39 | O=C(Nc1ccc(C(=O)N2CCOCC2)cc1)Nc1cccc2ccccc12 | 23.4
40 | CCC1CN(C(=O)NCc2ccccc2)c2cc(Cl)ccc2O1 (stereo not shown) | 12.2

Row | SMILES | hERG current change (%, negative = inhibition) at 10uM [%]
41 | CC(C)c1ccc(NC2CCCN(C(=O)CN3CCOC3=O)C2)cc1 (stereo not shown) | 11.1
42 | COc1ccc(-n2c(O)c(/C(C)=N/N3CCCCCC3)c(=O)[nH]c2=O)cc1 | -17.2
43 | Cc1cccc(C)c1OCc1cc(C(=O)N2CCN3CCCC3C2)no1 (stereo not shown) | -19.5
44 | COC(=O)C1=C(c2ccc(Cl)c(C(F)(F)F)c2)C[C@@H]2CC[C@H]1N2C(=O)NCc1ccco1 | -13.6
45 | COc1ccc(C(=O)N2CCc3[nH]nc(-c4ccccc4)c3C2)cc1 | -8.79
46 | Cn1c(=O)[nH]c(=O)c2[nH]c(N(Cc3ccccc3)Cc3ccccc3)nc21 | -10.2
47 | CN1CCN(NC(=O)c2cc([N+](=O)[O-])cc([N+](=O)[O-])c2)CC1 | -2.5
48 | O=C(COC(=O)C1=NNC(=O)CC1)NCCc1ccccc1 | 17.4
49 | O=S(=O)(/N=C(\Sc1ccccc1)c1ccccc1)c1ccc(Cl)cc1 | 14.3
50 | COc1cc(C(=O)NCCc2cc3c(OC)ccc(OC)c3[nH]c2=O)cc(OC)c1OC | -1.48
51 | COc1cc2ccccc2cc1C(=O)NNC(=O)c1ccccc1O | 7.31
52 | CCOC(=O)CSc1nnc(Cn2nnc(-c3ccccc3)n2)n1C | 5.87
53 | Cn1c(SCc2ccccc2C#N)nnc1-c1ccncc1 | 7.11
54 | Cn1c(=O)cc(SCC(=O)N2CCCC2)c2cc(Cl)ccc21 | -10.1
55 | CC(C)c1nnc(NC(=O)C2CCCO2)s1 (stereo not shown) | 14.6
56 | Cl.c1ccc(COc2cccc(CNCc3ccccn3)c2)cc1 | -45.2
57 | COc1ccc2c(c1)N(C)/C(=C1/SC(=S)N(NC(C)=O)C1=O)S2 | 13.4
58 | Cc1cc(S(=O)(=O)NC2CCCC2)ccc1-n1cnnn1 | 31.9
